# Test results as given in article PMC4336329 (PLoS ONE, 2015).
# In all, about 310,000 compounds went through this assay and about 2,200 (0.71%) showed an effect of 50% or more. Effects have a minus sign here. Some of the results follow.
# Target: human ether-à-go-go-related gene (hERG) potassium channel (human, UniProt Q12809)
# Assay: primary screen, population patch clamp on CHO cells stably expressing hERG
# human ether-à-go-go-related gene (hERG) potassium channel, sequence (Q12809 whole entry, looked up): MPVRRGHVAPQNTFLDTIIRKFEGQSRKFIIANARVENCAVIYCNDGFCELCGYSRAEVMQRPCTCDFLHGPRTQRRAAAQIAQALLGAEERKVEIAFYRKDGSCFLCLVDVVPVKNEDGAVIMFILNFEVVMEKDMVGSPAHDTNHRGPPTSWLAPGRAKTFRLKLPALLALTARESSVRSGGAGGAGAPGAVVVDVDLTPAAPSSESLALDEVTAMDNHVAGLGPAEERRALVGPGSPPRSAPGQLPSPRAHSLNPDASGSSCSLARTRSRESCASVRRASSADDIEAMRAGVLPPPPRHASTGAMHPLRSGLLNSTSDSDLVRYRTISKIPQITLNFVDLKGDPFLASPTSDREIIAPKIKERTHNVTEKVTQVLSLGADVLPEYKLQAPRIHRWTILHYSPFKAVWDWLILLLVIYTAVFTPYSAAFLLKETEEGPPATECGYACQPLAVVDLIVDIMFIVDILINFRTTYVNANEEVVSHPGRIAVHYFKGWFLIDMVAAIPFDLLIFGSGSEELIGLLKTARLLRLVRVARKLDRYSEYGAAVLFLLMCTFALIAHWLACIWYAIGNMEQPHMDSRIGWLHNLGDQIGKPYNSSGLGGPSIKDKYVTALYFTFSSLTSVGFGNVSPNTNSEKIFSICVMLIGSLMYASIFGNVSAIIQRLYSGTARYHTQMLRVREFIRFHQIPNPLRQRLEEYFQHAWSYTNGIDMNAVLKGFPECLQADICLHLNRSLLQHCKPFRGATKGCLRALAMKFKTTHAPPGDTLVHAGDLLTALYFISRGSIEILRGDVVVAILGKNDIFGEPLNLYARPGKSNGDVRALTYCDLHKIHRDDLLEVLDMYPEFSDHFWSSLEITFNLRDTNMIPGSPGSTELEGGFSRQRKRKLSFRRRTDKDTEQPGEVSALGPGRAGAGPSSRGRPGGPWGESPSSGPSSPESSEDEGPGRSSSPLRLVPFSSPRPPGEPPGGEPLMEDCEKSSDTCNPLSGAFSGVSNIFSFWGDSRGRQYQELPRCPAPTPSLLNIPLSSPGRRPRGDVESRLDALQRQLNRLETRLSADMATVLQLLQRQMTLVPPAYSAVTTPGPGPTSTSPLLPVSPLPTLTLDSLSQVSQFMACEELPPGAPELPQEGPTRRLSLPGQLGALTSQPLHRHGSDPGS
row,SMILES,"hERG current change (%, negative = inhibition) at 1uM [%]"
1,COCCN(C(=O)COC(=O)c1cccs1)c1c(N)n(Cc2ccccc2)c(=O)[nH]c1=O,16.2
2,O=C(Nc1ncn[nH]1)c1c(Cl)ccc(Cl)c1Cl,10.3
3,COc1ccc(-c2cc(C(=O)NN)[nH]n2)cc1,10.4
4,COc1ccc(C2=NN(C(=O)c3ccco3)C(c3ccco3)C2)cc1OC (stereo not drawn),9.78
5,Cc1onc(-c2ccccc2)c1C(=O)NCc1cccc(Cl)c1,14
6,O=C(NCc1ccccc1)C1=C[C@@H](C2CC2)C[C@@H](OCc2ccc(CO)cc2)O1,-1.59
7,CCOc1ccc(-n2cc(C(=O)Nc3cccc(C)n3)c3cc(OC)c(OC)cc3c2=O)cc1,9.29
8,N#C/C(=C(/O)CN1CCOCC1)c1nc(-c2ccccc2)cs1,14.7
9,O=C(O)CSc1nc2ccccc2o1,8.6
10,Cc1cc(NC(=O)CSc2cn(CC(=O)N(C(C)C)C(C)C)c3ccccc23)no1,12.1
11,Cc1cc(C)c(OCC(=O)OCC(=O)NCc2cccs2)c(C)c1,-0.511
12,O=C(NC(NNc1ccc([N+](=O)[O-])cc1)(C(F)(F)F)C(F)(F)F)c1ccccc1Cl,1.97
13,CCCCCCOC1(c2ccccc2)OC(=O)c2ccccc21 (stereo not drawn),17.9
14,CSc1ccc(C(=O)C2CCCN(S(=O)(=O)N(C)C)C2)cc1 (stereo not drawn),18.2
15,CC(C)CC(=O)N=Nc1c(O)[nH]c2ccccc12,12.2
16,Cc1cc(C)nc(-n2nc(C)cc2NC(=O)CN2CCCC2)n1,0.706
17,Cc1cccc(Oc2nc(-c3ccccn3)nc3ccccc23)c1,7.6
18,COc1ccc(NC(=S)Nc2ccccc2F)c(OC)c1,20.5
19,CN1C(=O)CSC1=NC12CC3CC(CC(C3)C1)C2,5.29

row,SMILES,"hERG current change (%, negative = inhibition) at 1uM [%]"
1,COc1ccc(S(=O)(=O)N2CCOC2CNC(=O)C(=O)NCCc2ccc(S(N)(=O)=O)cc2)cc1 (stereo not drawn),19.5
2,CCS(=O)(=O)N1Cc2ccccc2CC1C(=O)Nc1ccc(C)cc1 (stereo not drawn),-2.13
3,CCCCCCCCN1[C@@H](CC(C)=O)c2cc(C(F)(F)F)ccc2S1(=O)=O,11.8
4,O=[N+]([O-])c1ccc(CSc2ccc(-c3ccccn3)nn2)cc1,-1.44
5,COc1ccc(NC(=O)Cc2ccc(Cl)cc2Cl)cn1,10.5
6,Cc1nc(C(=O)N2CCOCC2)sc1C1(C)CC(c2ccccc2)=NO1 (stereo not drawn),5.57
7,COc1ccc(-n2c(C)cc(/C=C3\C(=N)N4N=C(CC(=O)N5CCOCC5)SC4=NC3=O)c2C)cc1,11.8
8,COC(=O)/C=C1/S/C(=N/NC(=O)c2ccccc2OC)NC1=O,24.1
9,CSc1nc(N(C)CCO)c2sc3nc(-c4ccco4)c4c(c3c2n1)CCC4,1.97
10,COc1ccccc1CN(C)CC(=O)Nc1cccc2ccccc12,17.4
11,O=C(O)CSc1nc2ccccc2n1Cc1ccccc1,7.23
12,CCn1c(SCc2nc3sc(C(=O)O)c(C)c3c(=O)[nH]2)nc2ccccc21,5.98
13,CC(=O)c1ccc(OC(=O)CN2C(=O)c3ccccc3C2=O)cc1,14.6
14,O=C(N/N=C/c1cc(Br)cc(Cl)c1O)c1ccc2c(c1)OCO2,15.2
15,Cc1ccc([C@@H]2CC=C(C(=O)O)[C@H](c3ccc(Cl)cc3)N2S(=O)(=O)c2ccc(C)cc2)cc1,8.09
16,O=C(O)c1c(C(=O)O)c(-c2ccc(Cl)c(Cl)c2)n2c1CSC2,17
17,Cc1ccc(C(=O)Cn2cccn2)cc1,18.4
18,Cc1cccc(NC(=O)CC2S/C(=N/c3nccs3)N(C)C2=O)c1 (stereo not drawn),7.91
19,CCc1cccc2c(C(=O)CCl)c[nH]c12,13.8

row,SMILES,"hERG current change (%, negative = inhibition) at 1uM [%]"
1,CCOc1ccc(C2=CSC3=NCCN23)cc1Cl,10.2
2,CC(C)(C)C(=O)NCCCc1ccccc1,-16.5
3,N=C1N(/N=C/c2ccccc2)C(=Nc2ccccc2)C(=S)N1c1ccccc1,-9.57
4,COc1cnc(-c2ccccn2)nc1N(C)C,3.6
5,CC(C)Oc1ccc(CCc2nnc(SC(C)C(=O)O)n2-c2ccccc2)cc1 (stereo not drawn),4.63
6,CCN(CC(=O)NCc1ccc(F)cc1)C(=O)COc1ccc(C)c(C)c1,-38.1
7,CN(Cc1ccccc1)C(=O)c1ncn(C)c1C(=O)N(C)Cc1ccccc1,9.6
8,COC(=O)C1=C(C)Nc2c(c(=O)n(C)c(=O)n2C)C1c1cccnc1 (stereo not drawn),3
9,CCCNC(=O)c1ccccc1NC(=O)c1ccccc1N(C)S(=O)(=O)c1ccccc1,9.2
10,CCOCC(=O)Nc1ccc(C)c(Cl)c1,7.48
11,c1cc(C(c2nnnn2C2CCCC2)N2CCOCC2)ccn1 (stereo not drawn),0.724
12,COC(=O)c1ccc(N=NN2CCCCCC2)cc1,11.2
13,Cc1ccc(Nc2nc(N)nc(CN3CCCCCC3)n2)cc1,-45.2
14,CC(C)(C)c1ccc(NC(=O)Nc2ccc3ccccc3n2)cc1,12.4
15,CCC(C)NC(=S)N(Cc1cc2cc(C)ccc2n2nnnc12)CC(C)(C)NC(C)C (stereo not drawn),14
16,COc1ccccc1NC(=S)N(CCCN(C)C)Cc1cc2cc3c(cc2[nH]c1=O)OCO3,-3.81
17,Oc1ccc(C=Nc2ccc(N3CCOCC3)cc2)c(O)c1,11.8
18,COc1ccc(-c2csc3nc(-c4cccnc4)nc(Cl)c23)cc1OC,9.63
19,CN1/C(=c2/s/c(=C3/C(=O)N(c4ccccc4)NC3=Nc3ccccc3)n(C)c2=O)C(C)(C)c2ccccc21,13.9
